Measured values as given in PubChem BioAssay AID2546 (National Center for Advancing Translational Sciences (NCATS), 2010).
Hit rate of the full screen: of about 310,000 compounds, about 11,000 (3.5%) were called active. The inconclusive results got no clear call from the source; some entries with a clear call stand among them for comparison. Calls follow the shape of the dose curve; as a rule, active = well fitted inhibition curve with a large enough effect; inconclusive = small, poorly fitted or top-dose-only effect, or effect the other way; inactive = flat fitted curve, though single readings scatter. No potency is given beside an inconclusive call; the fits are too rough.

Assay: VP16 counterscreen qHTS for inhibitors of ROR gamma transcriptional activity;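 also: Gal4-VP16 expression switched on by copper sulfate through the metallothionein promoter; nearly all actives have a fitted effect of over 50% in size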
Details: Drosophila S2 Gal4-VP16 UAS-luciferase, luminescence, 20 h; activity, negative = inhibition: at 53.6 µM (top of the series)
% is scaled to controls: 0 for no effect and ±100 for the full control effect; potency is read from the fitted curve at half-maximal effect; tags tell the direction and shape of the fitted curve.

| SMILES | Potency | activity, negative = inhibition |
| --- | --- | --- |
| C=C(C)COc1ccc2c(C)c(CC(=O)OC)c(=O)oc2c1C | inconclusive [inhibitor, single point] | – |
| O=C(Nc1ccccc1)N(Cc1ccc(Cl)cc1)CC(O)C(F)(F)F (centres undefined) | inconclusive [inhibitor, single point] | – |
| CC(=O)N1c2ccccc2C2(O)N=C(C)SC12 (centres undefined) | active: 4.47 µM | – |
| CCN(CC)c1ccc(NC(=O)Nc2ccc(C(C)=O)cc2)cc1 | inconclusive [activator, partial curve] | – |
| CC(=O)c1ccc(N2CCN(C(=S)Nc3ccc(Oc4ccccc4)cc3)CC2)cc1 | active: 4.47 µM | – |
| COc1ccc(CN(C(=S)Nc2ccccc2)C2CC(=O)N(c3ccc(F)cc3)C2=O)cc1 (centres undefined) | – | inactive: -12.7% |
| CC1=C(C(=O)OC2CCCCC2)C(c2cccs2)n2c(nc3ccccc32)N1 (centres undefined) | inconclusive [inhibitor, single point] | – |
| Cc1ccc2c(C)c(C(=O)N(C)Cc3nccn3C)oc2c1C | inconclusive [inhibitor, single point] | – |
| CCCC(=O)O[C@]1(C(=O)CCl)[C@@H](C)C[C@H]2[C@@H]3CCC4=CC(=O)C=C[C@]4(C)[C@@]3(F)C(=O)C[C@@]21C | – | inactive: -2.54% |
| N#Cc1c(N)nc(Sc2ccc(Cl)cc2)c(C#N)c1-c1ccccc1Cl | inconclusive [inhibitor, single point] | – |
| COCCC1CCCCN1C(=O)c1cc(COc2cccc(C(C)=O)c2)on1 (centres undefined) | inconclusive [inhibitor, single point] | – |
| CC(=O)Nc1ccc(Nc2ccccc2)cc1 | – | inactive: 0.0092% |
| O=c1c2ccccc2[nH]c(=S)n1CCc1ccccc1 | active: 3.16 µM | – |
| N#C/C(=C/c1ccc(-c2ccc(C(=O)O)c(Cl)c2)o1)C(=O)NCC1CCCO1 (centres undefined) | – | inactive: 0.641% |
| O=C(NC(=S)NC1CCCC1)c1ccccc1 | active: 10 µM | – |
| c1ccc2c(c1)ncn2CCCOc1ccc2c(c1)CCC2 | inconclusive [inhibitor, single point] | – |
| Cc1ccc(SCc2ccc(C(=O)N3CCCCC3)cc2)cc1 | – | inactive: -15.2% |
| COc1ccccc1N1CCN(C(=O)CCc2ccccc2)CC1 | inconclusive [activator, single point] | – |
| COC(=O)CCC(=O)N1CN2CN(C(=O)CCC(=O)OC)CC([N+](=O)[O-])(C2)C1 | inconclusive [inhibitor, single point] | – |
| COc1cc(SC#N)ccc1N=Cc1c(C)[nH]n(-c2ccc(C)cc2)c1=O | active: 5.62 µM | – |
| Cc1ccc(OCC(=O)Nc2ccc(O)c(-c3nc4ccccc4o3)c2)cc1 | – | inactive: -4.73% |
| CCCCn1cnc2c(oc3nc4c(cc32)CCCC4)c1=O | inconclusive [inhibitor, single point] | – |
| Cc1ccc(Nc2cc(C)nc3ncnn23)c(Cl)c1 | inconclusive [inhibitor, single point] | – |
| CC(C)(C)c1csc(NC2=NS(=O)(=O)c3ccccc32)n1 | inconclusive [inhibitor, single point] | – |
| Cn1cc(Br)c(C(=O)NC(=S)N2CCN(c3ccccn3)CC2)n1 | active: 12.6 µM | – |

| SMILES | Potency | activity, negative = inhibition |
| --- | --- | --- |
| COc1ccc(/C=N/Nc2ncc(C(F)(F)F)cc2Cl)c(OC)c1OC | active: 7.94 µM | – |
| O=C1/C(=C\c2cccc(O)c2O)SC(=S)N1Cc1ccccc1 | inconclusive [inhibitor, single point] | – |
| O=C(Cc1cccs1)Nc1nnc(SCc2ccc(Br)cc2)s1 | – | inactive: -12.1% |
| O=S(=O)(Nc1cc(Cl)ccc1N1CCCCC1)c1cccs1 | inconclusive [inhibitor, single point] | – |
| CN1CCC(NC(=S)Nc2cccc([N+](=O)[O-])c2)CC1 | – | inactive: 1.46% |
| Cc1cccc(Oc2ccc(Cl)cc2N)c1 | inconclusive [activator, partial curve] | – |
| COc1ccc(Nc2cc(Nc3cc(OC)c(OC)c(OC)c3)ncn2)cc1 | – | inactive: -2.54% |
| NS(=O)(=O)c1ccc(N/N=C2/CCCCC2C2CCCCC2)c([N+](=O)[O-])c1 (centres undefined) | inconclusive [inhibitor, single point] | – |
| N#CC1=C(N)NC(SCC(=O)c2ccccc2)=C(C#N)C12CCCC2 | inconclusive [activator, partial curve] | – |
| COc1cc(NC(=O)c2ccnc(N)c2)cc(C(=O)Nc2cccc(C(F)(F)F)c2)c1 | – | inactive: -1.88% |
| Cc1ccc([N+](=O)[O-])cc1S(=O)(=O)NCc1cccnc1 | inconclusive [activator, single point] | – |
| CCOC(=O)N1CCC(=NNC(=O)COc2cccc(C)c2)CC1 | inconclusive [inhibitor, single point] | – |
| CCOC(=O)C1CCCN(C2CC(=O)N(c3ccc(C(C)C)cc3)C2=O)C1 (centres undefined) | inconclusive [inhibitor, single point] | – |
| COc1ccc(NC(=O)c2ccc(-c3ccccc3C(F)(F)F)o2)cc1 | – | inactive: 3.57% |
| CC(C)Cc1cc(C(=O)O)n[nH]1 | – | inactive: 0.0257% |
| COC(=O)C(=Cc1cc(Br)c(OC)c(Br)c1)C(=O)OC | – | inactive: -17% |
| COc1ccc(CNCC(O)COc2cccc3c2OC(C)(C)C3)cc1 (centres undefined) | active: 10 µM | – |
| COc1cc2c(cc1OC)C(c1cccc(Br)c1)NC(=O)C2 (centres undefined) | inconclusive [activator, single point] | – |
| CCc1ccc(/C=C2\Oc3cc(OC(=O)N4CCOCC4)ccc3C2=O)cc1 | inconclusive [inhibitor, single point] | – |
| Cc1ccc(/C=N/Nc2nc3ccccc3[nH]2)s1 | active: 5.01 µM | – |
| Cc1cc2nc(Sc3c([N+](=O)[O-])nc(C)n3Cc3ccccc3)[nH]c2cc1C | active: 8.91 µM | – |
| Cc1c(C)c2ccc(OCC(=O)N3CCN(c4cccc(Cl)c4)CC3)cc2oc1=O | – | inactive: -5.7% |
| CCC(C)CC(C)CC(C)C(=O)/C=C(/O)C(C)CC(C)C/C=C/C(C)C(O)C(C)C(O)CC1CCC(C)(C)O1 (centres undefined) | inconclusive [inhibitor, single point] | – |
| COc1cc(C2SCC(=O)N2c2nnc(C34CC5CC(CC(C5)C3)C4)s2)cc(OC)c1OC (centres undefined) | – | inactive: -13.4% |
